Measured values published in publication PMC4336329 (PLoS ONE, 2015).
About 14,000 (4.5%) of roughly 310,000 compounds showed an effect of 50% or more. The effect is printed as a negative number. This is one part of the list.

These molecules were tested against human ether-à-go-go-related gene (hERG) potassium channel (human, UniProt Q12809) (assay: primary screen, population patch clamp on CHO cells stably expressing hERG).
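Also: peak tail current of the secondary pulse compared with the same well before compound.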

Chain of human ether-à-go-go-related gene (hERG) potassium channel (Q12809 whole entry, looked up): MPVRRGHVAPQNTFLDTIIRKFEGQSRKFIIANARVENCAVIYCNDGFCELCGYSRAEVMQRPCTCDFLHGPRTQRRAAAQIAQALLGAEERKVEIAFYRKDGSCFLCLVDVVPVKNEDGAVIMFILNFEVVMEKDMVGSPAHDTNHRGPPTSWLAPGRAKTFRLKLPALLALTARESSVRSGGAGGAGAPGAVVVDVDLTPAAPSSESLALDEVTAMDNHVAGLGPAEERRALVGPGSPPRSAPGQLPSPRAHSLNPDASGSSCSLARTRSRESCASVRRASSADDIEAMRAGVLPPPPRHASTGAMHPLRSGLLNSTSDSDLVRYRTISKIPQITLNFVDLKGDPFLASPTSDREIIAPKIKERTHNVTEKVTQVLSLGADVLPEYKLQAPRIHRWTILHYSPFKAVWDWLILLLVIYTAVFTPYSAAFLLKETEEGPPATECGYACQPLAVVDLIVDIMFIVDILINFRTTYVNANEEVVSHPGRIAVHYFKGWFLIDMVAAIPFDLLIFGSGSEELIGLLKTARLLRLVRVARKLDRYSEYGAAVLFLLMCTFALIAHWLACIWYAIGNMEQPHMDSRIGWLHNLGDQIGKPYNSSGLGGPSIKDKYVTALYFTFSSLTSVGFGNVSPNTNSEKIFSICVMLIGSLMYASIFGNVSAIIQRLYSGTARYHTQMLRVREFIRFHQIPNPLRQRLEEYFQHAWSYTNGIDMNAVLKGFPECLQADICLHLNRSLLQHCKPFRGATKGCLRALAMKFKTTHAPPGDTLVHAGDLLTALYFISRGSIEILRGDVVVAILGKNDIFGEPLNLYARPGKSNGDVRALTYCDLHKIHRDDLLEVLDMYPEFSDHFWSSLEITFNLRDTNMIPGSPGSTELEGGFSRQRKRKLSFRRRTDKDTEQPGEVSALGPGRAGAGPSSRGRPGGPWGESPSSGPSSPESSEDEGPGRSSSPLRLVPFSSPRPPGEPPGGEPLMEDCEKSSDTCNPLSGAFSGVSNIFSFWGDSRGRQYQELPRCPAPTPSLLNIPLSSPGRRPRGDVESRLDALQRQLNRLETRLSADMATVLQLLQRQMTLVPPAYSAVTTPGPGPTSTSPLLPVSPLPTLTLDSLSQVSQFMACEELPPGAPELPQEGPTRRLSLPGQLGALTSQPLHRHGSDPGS

| SMILES | hERG current change (%, negative = inhibition) at 10uM [%] |
| --- | --- |
| C=CCc1ccc(OCCOc2cccc3cccnc23)c(OC)c1 | 9.23 |
| CC(C(=O)NCC1CCCO1)N(C(=O)c1snc(C(N)=O)c1N)c1ccccc1 (stereo not drawn) | -4.06 |
| Cc1ccc(NC(=O)CN2CCN(C)CC2)cc1S(=O)(=O)N1CCOCC1 | -41.8 |
| Cc1c(C(=O)N(C)CC(=O)Nc2cccc(F)c2)oc2c(Cl)cccc12 | -11.9 |
| Cc1cccn2c(=O)c(C=O)c(N3CCN(C)CC3)nc12 | -0.442 |
| CCn1c2ccccc2c2nnc(SCc3ccc(C(=O)OC)o3)nc21 | -4.44 |
| CCC(C)NC(=O)Cc1c(OC)ccc2cc(Br)ccc12 (stereo not drawn) | -8.26 |
| O=C(NCc1cccnc1)c1ccccc1-c1nc(-c2ccccc2)no1 | -37.2 |
| CC1CC(C)CN(CCCNC(=O)c2csc3c2CCCC3)C1 (stereo not drawn) | -65 |
| C=CCN1CCCC1CNC(=O)c1cc2[nH]nnc2cc1OC.Cl (stereo not drawn) | 12.7 |
| CC(C)(C)c1ccc(C(=O)NCc2ccc(Cl)cc2)cc1 | 12.6 |
| O=c1c2c3c(sc2ncn1-n1cccc1)CCCCC3 | -11.6 |
| Cc1ncc([N+](=O)[O-])n1CC(=O)N/N=C/c1ccccc1F | 11.8 |
| C/C(=N\NC1=NCCN1)c1ccc(Cl)cc1 | -41.7 |
| COc1ccc(N(CC(=O)NCCc2ccc(Cl)cc2)S(=O)(=O)c2c(C)[nH]c(=O)[nH]c2=O)cc1 | -1.43 |
| CNC(=O)c1ccc(-c2nc(-c3ccccc3)cs2)cc1 | 16.9 |
| O=C(c1cc2c(ccc3ccccc32)oc1=O)N1CCCC1 | 9.48 |
| CCn1ccc(C(=O)Nc2ccc(S(=O)(=O)Nc3ccccc3OC)cc2)n1 | -32.5 |
| COc1ccc(N2CCN(C(=O)c3ccc4c(=O)n(Cc5ccc6c(c5)OCO6)c(=O)[nH]c4c3)CC2)cc1 | 36.1 |

| SMILES | hERG current change (%, negative = inhibition) at 10uM [%] |
| --- | --- |
| O=C(OCC1CC(c2ccccn2)=NO1)c1ccc(Br)cc1 (stereo not drawn) | -0.0181 |
| Cc1cc(Sc2nc(NC(C)C)nc(NC(C)C)n2)nc(Cl)n1 | -20.2 |
| COc1ccc(C(C)C)cc1S(=O)(=O)Nc1ncn[nH]1 | 31.3 |
| O=c1ccc2cc(S(=O)(=O)N3CCN(c4ccc(Cl)cc4)CC3)ccc2o1 | -52.8 |
| COc1ccc(C)cc1CN1C(=O)c2ccccc2C1=O | 17.5 |
| O=C(Nc1ccccc1Cl)NC1CCCCCCC1 | 9.91 |
| Cc1cccc(CNC(=O)c2ccc(NC(=O)C3=CSCCO3)cc2)c1 | 5.08 |
| COC(=O)C(NC(C)=O)(Nc1ccc(Br)cc1)C(=O)OC | 38.3 |
| CCOc1ccccc1NC(=O)C(OC(=O)c1ccc(N(C)C)cc1)c1ccccc1 (stereo not drawn) | 3.98 |
| Cc1nc2sc3c(c2c(=O)[nH]1)CCCC3 | 4.08 |
| COc1ccc(C(=O)NC(=S)Nc2ccccc2N2CCOCC2)cc1Br | 2.74 |
| Cc1cccc2nc(-c3ccccc3)nc(N[C@@H](CO)c3ccccc3)c12 | -2.51 |
| COc1ccc(N=CC2=C(O)CC(c3ccccc3)CC2=O)c(OC)c1 (stereo not drawn) | -6.57 |
| Cc1ccc(N2CC(C(=O)Nc3nnc(SCC(=O)N4CCOCC4)s3)CC2=O)cc1 (stereo not drawn) | 11.8 |
| Cc1nn2c(C(F)(F)F)c3c(nc2c1-c1ccccc1)CCC3 | 19.1 |
| COC(=O)C(NC(C)=O)(Nc1cccc(C)n1)C(F)(F)F (stereo not drawn) | 8.06 |
| O=C(Nc1nc2ccc(C(=O)N3CCCCC3)cc2s1)C1CCCCC1 | 7.68 |
| O=C(NCCOc1ccc(F)cc1)C1CCC(=O)N(CCN2CCOCC2)C1 (stereo not drawn) | 11.2 |
| COC(=O)c1cn(NC(=O)c2ccncc2)c(=O)c2ccccc12 | 0.88 |

| SMILES | hERG current change (%, negative = inhibition) at 10uM [%] |
| --- | --- |
| O=[N+]([O-])c1ccc(N2CCCC2)cc1N/N=C1\CN2CCC1CC2 | -11.9 |
| COc1ccccc1NC(=O)CSc1nnc(COc2ccccc2OC)n1C | -15.7 |
| COC(=O)c1cc(OC)c(OC)cc1NC(=S)N1CCN(Cc2ccccc2)CC1 | 6.28 |
| CCc1nn(CC(=O)NCCCN(CC)c2cccc(C)c2)c(=O)c2cc3occc3n12 | -16.3 |
| O=C(COC(=O)C1CCC1)NCc1ccccc1Cl | 7.42 |
| Cc1csc(NC(=O)CN2C(=O)c3ccccc3C2=O)c1C(N)=O | -5.92 |
| CC1(C)CC(=O)C(C=NCC(O)c2ccccc2)=C(O)C1 (stereo not drawn) | 17.1 |
| CCN(CCCNC(=O)Cn1ncc2c([nH]c3ccc(C)cc32)c1=O)Cc1ccccc1 | -58.5 |
| O=S(=O)(c1ccc(NC(=S)NN=C2CCCCC2)cc1)N1CCOCC1 | -2.96 |
| Cc1cc(C)n2nc(C(=O)OCC(=O)Nc3ccc(F)cc3F)nc2n1 | 8.68 |
| CCCCn1c(=O)n(CC(O)c2ccccc2)c(=O)c2c1ncn2C1CCCC1 (stereo not drawn) | -37 |
| O=c1ccc(-c2ccc(S(=O)(=O)NCC3CCN(Cc4ccccc4F)CC3)s2)n[nH]1 | -32.6 |
| Cc1ccc(C)c(NS(=O)(=O)c2ccc3[nH]c(=O)[nH]c3c2)c1 | 0.304 |
| O=S(=O)(c1ccc2c(c1)N(Cc1ccc(Cl)cc1)C1CCCN21)N1CCOCC1 (stereo not drawn) | 0.641 |
| CCn1c(SCC(=O)N2CCN(C(=O)c3ccco3)CC2)nnc1C(C)C | 14.4 |
| Cc1noc(C)c1C(=O)OCC(=O)NC1CC1 | 5.6 |
| CC(C)N(Cc1ccco1)/N=C/c1c(O)n(Cc2ccccc2)c(=O)[nH]c1=O | 8.85 |
| CN(C)CCCn1c(SCc2c(Cl)cccc2Cl)nnc1-c1ccncc1.O=C(O)C(=O)O | -0.471 |
| CCOC(=O)Cc1c(C)nc2c(-c3ccc(Cl)cc3)c(C)nn2c1C | 9.91 |
